# Experimental data as given in PubChem BioAssay AID504466 (National Center for Advancing Translational Sciences (NCATS), 2011).
# The whole screen tested about 330,000 compounds, of which about 4,200 (1.3%) were called active. Inconclusive means that the source gave no clear call. Such entries were picked first, then a sample of the others. Calls follow the shape of the dose curve; as a rule, active = well fitted activation curve with a large enough effect; inconclusive = small, poorly fitted or top-dose-only effect; inactive = no such curve, though single readings can be large or run the other way. Potencies beside an inconclusive call are fits to weak or partial responses and may not hold up.
# Experiment: qHTS screen for small molecules that induce genotoxicity in human embryonic kidney (HEK293T) cells expressing luciferase-tagged ELG1; also: nearly all actives have a fitted effect of over 60% in size; as to activity change, positive = activation: % of control where 0% means no effect
# Conditions: HEK293T ELG1-luciferase reporter, luminescence, 16 h; series mostly up to 46 µM; activity change, positive = activation: at the top concentration
# Summary of the method: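 After overnight (16 hr) compound treatment at 37 °C, ELG1-luciferase HEK293T cells were lysed with ONE-Glo; luminescence quantified 30 min later at room temperature.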
# Potency is read from the fitted curve at half-maximal effect; tags tell the direction and shape of the fitted curve.
Compound,"activity change, positive = activation",Potency
O=C(CSc1ccccc1)N1CCCC(Nc2ccccc2)C1 (centres undefined),inactive: 0.573%,–
CC1CCCN(C(=O)CSc2cnc3ccccc3n2)C1 (centres undefined),–,"inconclusive: 11.6 µM [activator, partial curve]"
C=CCc1c(C)nc(-c2ccccc2)nc1N/N=C/c1ccccc1,inactive: 0.632%,–
CN(CCCNC(=O)CCCOc1cc(=O)n(C)c2ccccc12)Cc1ccccc1,–,"inconclusive: 20.6 µM [activator, single point]"
COc1cccc2sc3cc(NCc4ccc(C)o4)ccc3c(=O)c12,–,"inconclusive: 10.3 µM [activator, partial curve, poor fit]"
O=C(OCC#CCSc1nc2ccccc2o1)c1ccco1,–,"inconclusive: 23.1 µM [activator, single point]"
Oc1ccccc1CNc1cccc2cccnc12,–,"inconclusive: 14.6 µM [activator, partial curve, poor fit]"
Cc1oc2ccc(O)cc2c1C(=O)OC(C)C,inactive: 15.1%,–
COc1ccc(NC(=O)C2Cc3ccccc3C(=O)O2)cc1 (centres undefined),–,"inconclusive: 23.1 µM [activator, partial curve, poor fit]"
Cc1ccccc1-n1c(SCC(=O)c2c(N)n(C)c(=O)n(C)c2=O)nnc1-c1cccnc1,inactive: -8.35%,–
N#C/C(=C/c1ccco1)c1nc2ccccc2s1,–,active: 16.4 µM
COC(=O)[C@@H](c1ccccc1)N(C)S(=O)(=O)c1cccc(S(=O)(=O)N(C)[C@@H](C(=O)OC)c2ccccc2)c1,inactive: -0.557%,–
CCOC(=O)c1ccc(NC(=O)CSc2ncccn2)cc1,–,"inconclusive: 29.1 µM [activator, single point]"
CCCn1nnc(NC(=O)c2ccc(-c3cccc(Cl)c3)o2)n1,inactive: 11.3%,–
CCCCS(=O)(=O)/C=C\C=C/S(=O)(=O)CCCC,–,"inconclusive: 3.26 µM [activator, partial curve, poor fit]"
Cc1ccc(-c2nc(C#N)c(NCc3ccco3)o2)cc1,–,active: 5.8 µM
COc1cccc(C(=O)NC2=NCCS2)c1,–,"inconclusive: 2.06 µM [activator, full curve]"
O=C1CC2c3ccccc3C1C1C(=O)N(CCO)C(=O)C21 (centres undefined),inactive: 1.65%,–
CC12CCC(=O)N1C(C(=O)NCc1ccccc1Cl)CS2 (centres undefined),inactive: -0.049%,–
O=C(c1cnn2c(C(F)(F)F)cc(-c3cccs3)nc12)N1CCN(C(c2ccccc2)c2ccccc2)CC1,inactive: -3.35%,–
CC(=O)c1cccc(N=Cc2c(O)ccc3ccccc23)c1,inactive: 0.16%,–
COc1cc(C)ccc1OCc1cc(C(=O)N2CCCCCCC2)no1,–,"inconclusive: 11.6 µM [activator, partial curve]"
O=C(NCCc1ccccc1)c1ccc(Cl)nc1,–,"inconclusive: 14.6 µM [activator, partial curve]"
Cc1nc2cc(NC(=O)c3ccc([N+](=O)[O-])s3)ccc2s1,–,"inconclusive: 25.9 µM [activator, single point]"
COc1cc(OC)cc(C(=O)NC2=NCCS2)c1,–,"inconclusive: 20.6 µM [activator, partial curve, poor fit]"

Compound,"activity change, positive = activation",Potency
O=[N+]([O-])c1ccc(N=Nc2ccc(O)cc2O)cc1,inactive: 10.1%,–
CC(=O)N1CCn2c3ccc(C)cc3c3cccc1c32,–,"inconclusive: 16.4 µM [activator, single point]"
CSc1nnc(NC(=O)c2cc3ccccc3oc2=O)s1,–,"inconclusive: 20.6 µM [activator, partial curve]"
O=C(O)c1ccc(N/N=C/c2ccc3ncccc3c2)cc1,–,"inconclusive: 0.291 µM [activator, partial curve]"
CCC(=O)Nc1ccc(N2CCN(C(=O)c3cccs3)CC2)cc1,inactive: -4.18%,–
O=C(c1cn(-c2ccccc2)nc1-c1ccc(F)cc1)N1CCOCC1,inactive: 2.28%,–
CCOC(=O)c1cnc2c(ccc3ccccc32)c1NCCCN(C)C,–,"inconclusive: 20.6 µM [activator, single point]"
O=C(NCCCN1CCOCC1)C(=O)N/N=C/c1ccccc1O,inactive: -4.26%,–
CCC1SC(=NC(=O)c2ccc(Cl)c(Cl)c2)NC1=O (centres undefined),–,"inconclusive: 18.4 µM [activator, partial curve, poor fit]"
CC(C)n1cnc2c(Nc3ccc(C(=O)O)cc3)nc(Cl)nc21,–,"inconclusive: 25.9 µM [activator, partial curve, poor fit]"
CCC1CCCCN1C(=O)CSc1nnc(-c2ccco2)o1 (centres undefined),–,"inconclusive: 10.3 µM [activator, partial curve]"
Cc1ccc(S(=O)(=O)Oc2ccccc2/C=N/NC(N)=S)cc1,–,"inconclusive: 23.1 µM [activator, partial curve, poor fit]"
COc1ccc2[nH]cc(CCN3C(=O)c4ccc(C(=O)O)cc4C3=O)c2c1,–,"inconclusive: 13 µM [activator, partial curve]"
CC(C)(C)C(=O)/C=C(N)/C=C/c1ccccc1,–,"inconclusive: 20.6 µM [activator, single point]"
COc1ccccc1C(=O)Nc1ccc2c(c1)n(C)c(=O)n2C,–,"inconclusive: 18.3 µM [activator, single point]"
CC(NC(=O)C(=O)NCCc1c[nH]c2ccccc12)c1ccccc1 (centres undefined),inactive: -8.99%,–
CCOC(=O)N1CCN(C(=O)Cn2nc(C)n3nc(-c4ccc(CC)cc4)cc3c2=O)CC1,inactive: 14.1%,–
Cc1ccsc1/C=C1\CCc2ccccc2C1=O,–,"inconclusive: 0.326 µM [activator, partial curve, poor fit]"
N#CCCCSc1nnc(-c2ccccn2)o1,–,"inconclusive: 18.4 µM [activator, single point]"
C(=C\c1nc(-c2ccccc2)no1)/c1ccccc1,–,"inconclusive: 9.2 µM [activator, partial curve]"
O=C(COc1ccccc1)N/N=C/c1ccc2c(c1)OCO2,inactive: 12.4%,–
Cc1ccc2nc(NC(=O)c3ccc(N4C(=O)CCC4=O)cc3)sc2c1,inactive: 3.45%,–
Nc1ncn([C@H]2C[C@H](O)[C@@H](CO)O2)c(=O)n1,–,"inconclusive: 0.58 µM [activator, full curve, poor fit]"
CCOC(=O)C1CCCN(C(=O)c2sc3nc4n(c(=O)c3c2C)CCC4)C1 (centres undefined),inactive: -1.47%,–
